The results in this text go back to PMC12831459.

By UniProt entry, the sequences of proteins in these tests, tags left out. Where a name states a change or a piece, a line headed by the entry shows the natural chain unless it says otherwise.
UniProt Q13485: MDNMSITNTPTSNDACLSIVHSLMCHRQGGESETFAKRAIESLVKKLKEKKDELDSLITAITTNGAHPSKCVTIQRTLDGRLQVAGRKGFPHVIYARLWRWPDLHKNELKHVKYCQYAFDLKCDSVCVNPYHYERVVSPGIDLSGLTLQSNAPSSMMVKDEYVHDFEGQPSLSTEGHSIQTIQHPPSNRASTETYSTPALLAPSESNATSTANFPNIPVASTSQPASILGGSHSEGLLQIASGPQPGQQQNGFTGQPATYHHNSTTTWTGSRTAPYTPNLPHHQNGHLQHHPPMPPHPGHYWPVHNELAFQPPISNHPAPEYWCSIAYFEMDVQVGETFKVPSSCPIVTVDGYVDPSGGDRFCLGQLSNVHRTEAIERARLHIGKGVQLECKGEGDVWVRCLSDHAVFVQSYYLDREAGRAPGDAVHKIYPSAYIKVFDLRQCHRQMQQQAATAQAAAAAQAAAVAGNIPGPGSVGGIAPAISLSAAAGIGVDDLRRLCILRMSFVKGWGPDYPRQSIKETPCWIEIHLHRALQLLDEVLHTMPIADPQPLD
UniProt P84022: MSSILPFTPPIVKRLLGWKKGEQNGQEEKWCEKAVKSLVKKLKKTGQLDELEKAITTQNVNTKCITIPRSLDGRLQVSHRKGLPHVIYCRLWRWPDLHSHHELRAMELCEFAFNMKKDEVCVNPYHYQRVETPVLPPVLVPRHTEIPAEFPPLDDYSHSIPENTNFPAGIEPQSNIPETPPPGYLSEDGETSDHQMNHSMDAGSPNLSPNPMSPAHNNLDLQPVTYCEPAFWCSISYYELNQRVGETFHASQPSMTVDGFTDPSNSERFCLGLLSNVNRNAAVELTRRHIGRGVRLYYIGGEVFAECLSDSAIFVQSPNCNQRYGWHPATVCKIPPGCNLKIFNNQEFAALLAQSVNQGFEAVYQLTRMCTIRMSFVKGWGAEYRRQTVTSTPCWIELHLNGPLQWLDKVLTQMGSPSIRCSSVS

These are yes or no findings as the source states them, for the method shown. Binding seen in cells or lysates may run through a third protein. Some entries that bind do so weakly or less than the wild type. For some of these results: Where a sequence is shown, tags or fusion partners need not be part of it.

In test [1] the target is GST-tagged SMAD4 MH2 domain truncation (319-552 amino acids) (human) (UniProt Q13485). The test can be described thus: FRET or BRET; TR-FRET of single pairs: GST-SMAD4 (WT, domain truncations, truncation mutants) with VF-tagged partners; signal as fold change over empty vector controls.
The target in test [2] is T1, GST-NFATc1 (full-length) (human) (UniProt O95644).
T1 sequence: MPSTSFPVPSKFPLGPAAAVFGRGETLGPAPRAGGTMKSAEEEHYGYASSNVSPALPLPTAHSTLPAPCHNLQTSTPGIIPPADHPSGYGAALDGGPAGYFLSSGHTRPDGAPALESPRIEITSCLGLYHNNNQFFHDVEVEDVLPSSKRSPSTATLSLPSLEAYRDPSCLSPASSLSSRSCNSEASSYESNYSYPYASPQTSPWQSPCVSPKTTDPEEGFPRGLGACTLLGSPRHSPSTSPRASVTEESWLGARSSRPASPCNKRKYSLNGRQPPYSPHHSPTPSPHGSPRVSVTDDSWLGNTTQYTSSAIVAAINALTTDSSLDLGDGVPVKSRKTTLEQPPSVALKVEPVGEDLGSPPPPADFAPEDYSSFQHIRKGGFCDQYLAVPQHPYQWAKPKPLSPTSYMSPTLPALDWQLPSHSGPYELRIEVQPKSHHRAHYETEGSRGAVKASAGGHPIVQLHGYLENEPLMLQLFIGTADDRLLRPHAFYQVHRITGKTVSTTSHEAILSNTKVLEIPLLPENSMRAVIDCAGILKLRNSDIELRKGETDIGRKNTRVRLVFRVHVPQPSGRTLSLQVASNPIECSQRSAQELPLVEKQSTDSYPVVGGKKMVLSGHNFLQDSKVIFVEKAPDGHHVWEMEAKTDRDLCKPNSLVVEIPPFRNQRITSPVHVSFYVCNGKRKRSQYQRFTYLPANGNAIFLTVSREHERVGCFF
As to the kind of experiment: pull-down; GST-pulldown from lysates of HEK293T cells co-expressing a GST-tagged and a VF-tagged protein, then immunoblotting; in some panels cells treated with TGF-β (10 ng/ml, 4 h), SB431542 (10 μM, 1 h), ionomycin 10 μM + PMA 1 μM (4 h) or CsA (10 μM, 1 h). (Immunoblotting shows a protein as a band on a membrane.)

Test [3] concerns the target T2, GST-tagged NFATc1 T1, truncation of AD and RD (1-425 amino acids) (human) (UniProt O95644).
T2 sequence: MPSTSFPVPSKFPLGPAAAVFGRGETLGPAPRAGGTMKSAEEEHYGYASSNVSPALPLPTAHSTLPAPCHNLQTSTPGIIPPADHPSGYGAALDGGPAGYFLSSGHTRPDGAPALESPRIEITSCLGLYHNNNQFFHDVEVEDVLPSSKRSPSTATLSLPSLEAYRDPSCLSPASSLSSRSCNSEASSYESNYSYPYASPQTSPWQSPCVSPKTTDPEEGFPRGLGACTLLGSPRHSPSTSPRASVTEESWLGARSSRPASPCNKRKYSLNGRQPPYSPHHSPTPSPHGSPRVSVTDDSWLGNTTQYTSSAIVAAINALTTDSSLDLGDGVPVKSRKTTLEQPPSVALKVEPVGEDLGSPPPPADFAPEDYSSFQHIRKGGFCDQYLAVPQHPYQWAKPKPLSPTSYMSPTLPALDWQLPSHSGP
The test is described as above.

Test [4] addresses T3, GST-tagged NFATc1 T2, truncation of DBD and CD (426-716 amino acids) (human) (UniProt O95644).
T3 sequence: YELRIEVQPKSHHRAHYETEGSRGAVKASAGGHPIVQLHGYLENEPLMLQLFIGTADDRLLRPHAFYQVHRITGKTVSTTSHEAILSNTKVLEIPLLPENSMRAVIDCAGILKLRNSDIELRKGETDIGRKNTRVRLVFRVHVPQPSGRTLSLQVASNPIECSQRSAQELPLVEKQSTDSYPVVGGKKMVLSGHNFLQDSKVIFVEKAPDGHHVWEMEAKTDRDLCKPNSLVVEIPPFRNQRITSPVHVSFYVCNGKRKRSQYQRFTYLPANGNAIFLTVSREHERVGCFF
Described as above.

For the substance “VF-tagged SMAD3 (from UniProt P84022 1-425)”, the binding entry in test [1] is “binds”.
As for “VF-SMAD4 (Venus-Flag-tagged SMAD4, full-length) (from UniProt Q13485 1-552)”, the binding result in test [2] is “binds”; in test [3], “no binding”; in test [4], “binds”.
Take “VF-tagged SMAD4 MH1 domain truncation (1-142 amino acids) (from UniProt Q13485 1-142) (domain or fragment)”: the binding result in test [2] is listed as “binds”.
In the case of “VF-tagged SMAD4 linker region truncation (143-318 amino acids) (from UniProt Q13485 143-318) (domain or fragment)”, the binding result in test [2] is listed as “no binding”.
Regarding “VF-tagged SMAD4 MH2 domain truncation (319-552 amino acids) (from UniProt Q13485 319-552) (domain or fragment)”, the binding entry in test [2] was “no binding”.
